Test results from the RNAGym collection of RNA variant scans (doi:10.1093/nar/gkz1192).
Read counts are not given, so values of variants with three or more changes are uncertain.

B1: CPEB3 Ribozyme (parent)
chain: UAACAGGGGGCCACAGCAGAAGCGUUCACGUCGCAGCCCCUGUCAGAUUCUGGUGAAUCUGCGAAUUCUGCUGUAUAUCUC

Variants of: B1
Assay: self-cleavage, relative activity (ratio to wild type); higher = more cleavage; in vitro, sequencing
How it was run: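 Libraries of CPEB3 self-cleaving ribozyme mutants came from rounds of error-prone PCR and carried barcodes, which DNA sequencing matched to variants. In vitro transcription used T7 RNA polymerase at 37°C for 5 hours, with a further 15 min in DNase I before EDTA stopped the reaction; the ribozymes cleaved during both steps. The RNA was reverse transcribed with template switching and sequenced on Illumina. Relative activity is the cleaved/total read fraction of a variant divided by that of the unmutated ribozyme, averaged over three batches with at least 5 reads.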

| Variant | self-cleavage |
| --- | --- |
| UAACAGAGGGCCGCAGCAGAAGCGUACACGACGCAGCCCCUGUCAGACUCUGGUGAAUCUGCGAACUCUGCUGUAUAUCUC | 0.04 |
| UAACAUGGGGCCACAACAGAAGCGUUCACGUCGCAGCCCCUGUCAGAUUCUGGUGAAUCUGCGAGUUCUGCUGUAUAUCUC | 0.25 |
| UAACAGAGGGCCGCAGCAGAAGCGUUCACGUCGCAGCCCCUCUCAGAUUCUGGUGAAUCUGCGAAUCCUGCUGUAUAUCUC | 0.06 |
| UAACAGAGGGCCUCAGCAGAAGCGUUCACGUCGCAGCCCCUGUCAGAUCCUGGUGAAUCUGCGAACUCUGCUGUACAUCUC | 0.14 |
| UAACAUGGGGCCACAGCAGAAGUGUUCACGUCGCAGCCCCUGUCAGAUUCUGGUGAAUCUGCGGAUUCUGCUGUAUAUCUC | 0.22 |
| UAACAUGGGGCCACAGCAGAAGCGUUCACGUCGUAGCCCCUGUCAGAUUCUCGUGAAUCUGCGAAAUCUGCGGUAUAUCUC | 0.05 |
| UAACAGAGGGCCUCAGCAGAAGCGUUCGCGUUGCAGCCCCUGUCAGAUUCUGGUGAAUCUGCGAAUUCUGCUGUAUACCCC | 0.06 |
| UAACAGAGGGCCGCAGCAGAAGCGUUCACGUCGCGGCCCCUGUCAGAUUCUGGUGAAUCUGCGAAUCCUGCUGUAUAUCUC | 0.31 |
| UAACAUGGAGCCGCAGCAGAAGCGUUCACGUCGCAGCCCCUGUCAGAAUCUGGUGAAUCUGCGAAUCCUGCUGUAUAUCUC | 0.08 |
| UAACAUGGGGCCACAGGAGAAGCGUUCGCGUCGCAGCCCCUGUCAGAUUCUGGUGAAUCUGCGAAUUCUGCCGUAUGUCUC | 0.06 |
| UAACAUGGGGCCACAGCAGAAGCGUUCACGUCGCAGCCCCUGUCAGAUUCUGGUGAAUCCGCGAAUUCUGCUGCAUAUCUC | 0.22 |
| UAACAUGGGGCCACAGUAGGAGCGCUCACGUCGCAGCCCCUGUCAGGUUCUGGUGAAUCUGCGAAUUCUGCUGCAUAUCUC | 0.04 |
| UAACAUAGGGCCACAGCAGAAGCGUUCACGUCGCAGCCCCAGUCAGAUUCUGGUGGGUCUGCGGAUUCUGCUGUAUACCUC | 0.06 |
| UAACAUGGGGCCACAGCAGAAGCGUUCACGUCGCAGCCCCUGUCAGAUUCCGGUGAAUCCGCGGACUCUGCUGUAUAUCUC | 0.05 |
| UAACAUGGGGCCACAGCAGAAGCGUUCACGUCUCAGCCCCCGUCAGAUUCUGGUGAAUCUGCGAAAACUGCUGUAUAUCUC | 0.07 |
| UAACAUGGGGCCACAGCAGAAGCGUUCACGUCGCAGCCCCUGUCAGAUCCUGGUGAAUCUGCGAAUUCUGCUGUAUACCUC | 0.29 |
| UAACAUGGGGCCACAGCAGAAGCGUUCACGUCGCAGCCCUUGUCAGAUUCUGGUGAAUCUGCGAACUCUGCUGCAUAUCUC | 0.35 |
| UAACAUGGGGCCACAGCAGAAGCGUUCACGUCGCAGCCCCUGUCAAAUUCUGGUGGAUCUGCGAAUUCUGCUGUAUAUCUC | 0.07 |
| UAACAUGGGGCCACAGCAGAAGCGCUCACGUCGCAGCCCCUGUCAGAUUCUGGUGAAUCUGCGAAUUCUGCUGUAUGUCCC | 0.06 |
| UAACAUGGGGCCACAGCAGAAGCGUUCACGCCGCAGCCCCUGUCAGAUUCUGGCGAAUCUGCGAAUUCGGCUGUAUAUCUC | 0.17 |
| UAACAUGGGGCCACAGCAGAAGCUUUCGCGUCGCAGCCCCUGUCAGAUUCUGGUGAAUCUGCGAAUUCUGCUGUAUAUCUC | 0.24 |
| UAACAGAGGGCCACCGCAGAGGCGUUCACGUCGCAGCCCCUGCCAGAUCCUGGUGAAUCUGCGAAUUCUGCUGUAUAUCCC | 0.21 |
| UAACAGAGGGCCACGGCAGAAGCGCUCACGUCGCAGCCCCUGCCAGAUUCUGGUGAGUCUGCGAAUUCUGCUGUAUACCUC | 0.04 |

| Variant | self-cleavage |
| --- | --- |
| UAACAUGGGGCCACAGCAGAAGCGUUCACGUCGCAGCCCCUGUCAGACUCUGGUGGACCUGCGAAUUCUGCUGUAUAUCUC | 0.21 |
| UAACAGAGGGCCUCAGCAGAAGCGUUCACGUCGCAGCCCCUGUCAGAUUCUGGUGAGUCUGCGAAUUCUGCUGUAUAUCAC | 0.06 |
| UAACAUGGGGCCACAGCAGAAGCGUUCACGUCGCAGCCCCUGUCAGAUUCAGGUGAAUCUGCGAGUUCUGCUGUAUAUCUC | 0.15 |
| UAACAUGGGGCGACAGCAGAAGCGUUCACGUCGCAGCCCCGGUCAGAUUCUAGUGAAUCUGCGAAUUCUGCUGUAAAUCUC | 0.09 |
| UAACAGAGGGCCACGGCAGGAGCGUACACGUCGCUGCCCCUGUCAGAUUCUGGUGAAUCUGCGAAUUCUGCUGUAUAUCUC | 0.04 |
| UAACAUGGAGCCACAGCAGAAGCGUUCACGUCGCAGCCCCUGUCAGAUUCUGGUGAAUCUGCGUAUUCAGCUGCAUAACUC | 0.05 |
| UAACAGAGGGCCGCAGCAGAAGCGUUCACGUCGCAGCCCCUGUCAGACUCUGGUGAAUCUGCGAAUUCUGCUGUAUAUCUC | 0.24 |
| UAACAUGGGGCCACAGCAGAAGCGUUCACGUCGCAGCCCCUGUCAGAUUCCGGUGAAUCUGCGACUUCUGCCGUAUCUCUC | 0.13 |
| UAACAUGGGGCCACAGCAGAAGCGUUCACGUCGCAGCCCCUGUCAGAUUCUGGCGAAUCUGCGAAUUCUGCUGUAUAACUC | 0.42 |
| UAACAUGGGGCCACAUCAGAAGCGUUCAUGUCACAGCCCCUGUCAGAUUUUGGUGAAUCUGCGAAAUCUGCUGUAUAUCUC | 0.04 |
| UAACAGAGGGCCGCAGCAGAAGCGUUCACGUCGCAGCCCCUGUCAGCUUCUGGUGAAUCUGCGAAUUCUGCUGUAUAUCUC | 0.05 |
| UAACAGAGGGCCUCGGCAGAAGCGCUCACGUCGCAGCCCCUGUCAGAUUCUGGUGAGUCUGCGAAUUCUGCUGUAUACCUC | 0.18 |
| UAACAGAGGGCCACGGCAGAGGCGUCCACGUCGCAGCCCCUGUCAGAUUCUGGUGAAUCUGCGAAUUCUGCAGUAUAUCUC | 0.06 |
| UAACAUGGGGCCACAGCAGAAGCGCUCACGUCGCAGCCCCUGUCAGAUUCUGGAGAAUCUGCGAAUCCUGCUGUAUAUCUC | 0.12 |
| UAACAGAGGGCCCCAGCAGAAGCGUUCACGCCGCAGCCCCUGUCAGUUUCUGGUGAGUCUGCGAAUUCCGCUGUAUAUCCC | 0.05 |
| UAACAUGGGGCCACAGCAGAAGCGUUCAUGUCGCUGCCCCUGUCAGAUUCUGGUGAAUCUGCGAAUUCUGCUGUAUAUCUC | 0.11 |
| UAACAUGGGGCCACAGCAAAAGCGUUCACGACGCAGCCCCUGUCGGAUUCUGGUGAAUCUGCGAAUUCCGCUGUAUAUCUC | 0.05 |
| UAACAUGGGGCAACAGCAGAAGCGUUCACGUCGCAGCCCCUGCCAGAUUCUGGUGGAUCUGCGAGUUCUGCUGUAUAUCUC | 0.21 |
| UAACAUGGGGCCACAGCAGAAGCGCUCACGUCGCAGCCCCUGCCAGAUUCUGGUGAAACUGCGAAUACUGCUGUAUAUCUC | 0.24 |
| UAACAGAGGGCCUCAGCAGAAGCGUUCACGUCGCAGCCCCUGUCAGAUUCUGGUGAGUCUGCGAAUUCUGCUGUAUAUCUC | 0.18 |
| UAACAGAGGGCCGCAGCAGAAGCGUUCACGUCGCAGCCCCUGUCAGGUUCUGGUGAAUCUGCGAACUCUGCUGUAUAUCAC | 0.2 |
| UAACAUGGGGCCACAGCAGAAGCGUUCACGACGCAGCCCCUGACAGAUUCUGGUGAAUCCGCGAAUUCUGCUGUAUAUCUC | 0.15 |
| UAACAUGGGGCCACAGCAGAAGCGUUCACGACGCAGCCCCUGUCAGAAUCUGGUGAAUCUGCGAAUUCUGCUGUAUAUCUC | 0.04 |

| Variant | self-cleavage |
| --- | --- |
| UAACAUGGGGCCACAGCAGAAGCGCUCACGUCGCAGCCCCUGUCAGAUUCUGGUGAAUCUGCGAAUACUGCUGUAUAUCUC | 0.09 |
| UAACAUGGGGCCACAGCAGAAGCGUUCACGUCGCAGCCCCUGUCAGAUUCUGGUGAAUCUGCGAAUUAUGCCGUAUAUCUC | 0.21 |
| UAACAUGGGGUCACAGCAGAGGCGUUAACCUCGCAGCCCCUGUCAGAUUCUGGUGAAUCUGCGAAUUCUGCUGCAUAUCUC | 0.04 |
| UAACAUGGGGCCACAGCAGAAGCGUUUACGUCGCGGCCCCUGCCAGAUUCUGGUGAAUCUGCGAAUUCUGCUGUAUUUCUC | 0.08 |
| UAACAUGGCGCCACAGCAGAAGCGUUCACGUCGCAGCCCCUGUCAGAUUCUGGUGAACCUGCGAAUUCUGCUGUAUAACUC | 0.07 |
| UAACAUGGGGCAGCGGCAGAAGCGUUCACGUAGCAGCCCCUGUCAGAUUCUGGUGAAUCUGCGAAUUCUGCUGUAUAUCGC | 0.05 |
| UAACAGAGGGCCUCAGCAGAAGCGUACACGUCGCAGCCCCUGUCAGAUCCUGAUGAAUCUGUGAAUUCUACUGUAUAUCUC | 0.03 |
| UAACAUGGGGCCACAGCAGAAGCGUUCACGCCGCAGCCCCUGCCAGAUUCUGGUGAAUCCGUGAAUUCUGCUGUAUAUCUC | 0.05 |
| UAACAUGGGGCCACAGCAGAAGCGUUCACGUCGCAGCCCCUGUCAGAUUCAGGUGAAUCUGCGAACUCUGCUGUAUAUCUC | 0.08 |
| UAACAUGGGGCCAAAGCGGAAGCGUUCACGUCGCAGCCCCAGUCGGAUUCCGGUGAAUCUGCGAAUUCUGCUGUAUAUCUC | 0.05 |
| UAACAUGGGGCCACAGCAGAAGCGUUCACGUCCCAGCCCCUGUCAGAUUCUGGUGAAUCUGCGGGUUCUGCUGUAUAUCUC | 0.11 |
| UAACAUGGCGCCACAGCAGAAGCGUUCACGUCGCAGCCCCUGUCAGAUUCUGGUGAAUCUGCGGACUCUGCUGUAUAUCUC | 0.06 |
| UAACAGAGGGCCACGGCAGAAGCGUUCACGUCGCAGCCCCUGUCAGAUUCUGGUGAAUCUGCGAGUUCUGCUGUAUAUCUC | 0.24 |
| UAACAUGGGGCCACAGCAGAAGCGUCCACGUCGCAGCCCCUGUCAGAUUCUGGUGAAUCUGCGAAUUCUGCUGUAUACCUC | 0.1 |
| UAACAGAGGGCCACCGCAGAAGCGUUCACGUCGCGGCCCCUGUCAGAUUCUGGUGAAUCUGCGGAUCCUGCUGUAUAUCCC | 0.04 |
| UAACAUGGGGCCACAGCAAAGGCGUUCUCGUCGCAGCCCCAGUCAGAUUCUGGUUAAUCUGCGAAUUCUGCUGUGUAUCUC | 0.03 |
| UAACAGAGGGCCGCAGCAGAAGCGUUCACGUCGCGGCCCCUAUCAGAUUCUGGCGAAUCUGCGAAUUCUGCUGUAUAUCUC | 0.08 |
| UAACAUGGGGCCACAGCAGAAGCGUUCACGUCGCAGCCCCUGUCAGAUUUUGGUGAAUCUGCGUAUUCUGCUGUAUAUCUC | 0.38 |
| UAACAUGGGGCCACAACAGAAGCGCUCUCGUCGCAGCCCCUGUCAGUUUCUGGUGAGUCUGCGGAUUCUGCUGUAUAUCUC | 0.04 |
| UAACAGAGGGCCUCAGCUGAAGCGCCCACGUCGCAGCCCCCGUCAGAUUCUGGUGAAUCUGCGAAUUCUGCUGUAUAUCCC | 0.17 |
| UAACAUGGGGCCACAGCAGAAGCGUUCACGCCGCAGCCCCUGUCAGAUUCUGGUGAAUCUGCUAAUUCUGCUGUAUAUCUC | 0.29 |
| UAACAGAGGGCCUCAGCAGAAGCGCUCAUGUCGCAGCCCCCGUCAGAUUCUGGUGAAACUGCGAAUUCUGCUGUAUAUCUC | 0.06 |
